The other results are listed elsewhere or left out. Single values are uncertain, as repeats are few or missing.
Legend:
Assay in all cases: cell count relative to DMSO control; melanoma cells; higher = more viable cells
Settings in all cases: library dose: standard library concentration; 72 h
G361 = test system: G361
IPC-298 = test system: IPC-298
IST-MEL1 = test system: IST-MEL1
LB2518-MEL = test system: LB2518-MEL
LOXIMVI = test system: LOXIMVI
MEL-HO = test system: MEL-HO
MZ2-MEL = test system: MZ2-MEL
MeWo = test system: MeWo
RPMI7951 = test system: RPMI7951
RVH-421 = test system: RVH-421
SkMel28 = test system: SkMel28
SkMel2 = test system: SkMel2
SkMel30 = test system: SkMel30
SkMel5 = test system: SkMel5
UACC257 = test system: UACC257
UACC62 = test system: UACC62
WM115 = test system: WM115
WM1716 = test system: WM1716
WM3526 = test system: WM3526
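Note: cells treated in 1,536-well plates, then fixed and DAPI-stained, with nuclei counted from automated high-throughput microscope images.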

| Compound | cell count (G361) [%] | cell count (IPC-298) [%] | cell count (IST-MEL1) [%] | cell count (LB2518-MEL) [%] | cell count (LOXIMVI) [%] | cell count (MEL-HO) [%] | cell count (MZ2-MEL) [%] | cell count (MeWo) [%] | cell count (RPMI7951) [%] | cell count (RVH-421) [%] | cell count (SkMel28) [%] | cell count (SkMel2) [%] | cell count (SkMel30) [%] | cell count (SkMel5) [%] | cell count (UACC257) [%] | cell count (UACC62) [%] | cell count (WM115) [%] | cell count (WM1716) [%] | cell count (WM3526) [%] |
| --- | --- | --- | --- | --- | --- | --- | --- | --- | --- | --- | --- | --- | --- | --- | --- | --- | --- | --- | --- |
| O=C(O)[C@@H]1[O][Sb](=[O])([O][Sb]2(=[O])[O][C@H]([C@H](O)CO)[C@H](O)[C@H](C(=O)O)[O]2)[O][C@H]([C@H](O)CO)[C@@H]1O (stereo partly drawn) [stibogluconate] + CCCCCCCCCCCC1=C(O)C(=O)C=C(O)C1=O [Embelin] (first compound 10 µM, partner dose 6 µM) | 60.4 | 75.1 | 70 | 86 | 95 | 61.5 | 94.7 | 89.7 | 105 | 37.7 | 96.1 | 96 | 103 | 101 | 89.1 | 80.6 | 81.7 | 69.7 | 85 |
| O=C(Nc1cc(C(F)(F)F)cc(C(F)(F)F)c1)c1cc(Cl)ccc1O + COC(=O)c1sccc1S(=O)(=O)Nc1ccc(Nc2ccccc2)cc1OC [GSK0660] (first compound 0.08 µM, partner dose 5 µM) | 93.2 | 95.3 | 96.8 | 124 | 121 | 91.3 | 89.8 | 89.9 | 104 | 94.2 | 88.3 | 97.6 | 109 | 78 | 81.9 | 102 | 101 | 112 | 99.2 |
| O=C(O)c1ccc2c(c1)nc(Nc1cccc(Cl)c1)c1ccncc12 + N#Cc1c(O)c2c(-c3ccc(-c4ccccc4O)cc3)csc2[nH]c1=O [A769662] (first compound 2 µM, partner dose 10 µM) | 76.9 | 82.9 | 82.1 | 111 | 57.3 | 62.3 | 75.9 | 75.9 | 93.9 | 84.9 | 95.3 | 96.1 | 79.8 | 97.9 | 110 | 92 | 88 | 111 | 85.7 |
| O=C(O)c1ccc2c(c1)nc(Nc1cccc(Cl)c1)c1ccncc12 + O=C1NC(=O)/C(=C/c2ccc(-c3ccc(F)cc3O)o2)S1 [AS252424] (first compound 2 µM, partner dose 5 µM) | 73 | 67.2 | 71.1 | 96.9 | 37.3 | 50 | 54 | 74 | 46.5 | 75.4 | 72.8 | 65.7 | 67.7 | 57.5 | 76.2 | 80.8 | 104 | 96.5 | 55.9 |
| O=C(Nc1cc(C(F)(F)F)cc(C(F)(F)F)c1)c1cc(Cl)ccc1O + N#Cc1c(O)c2c(-c3ccc(-c4ccccc4O)cc3)csc2[nH]c1=O [A769662] (first compound 0.08 µM, partner dose 10 µM) | 100 | 101 | 81.4 | 82.2 | 128 | 82.3 | 91.5 | 88.9 | 125 | 115 | 87.1 | 117 | 109 | 91.3 | 89.2 | 67.3 | 96.6 | 105 | 79.2 |
| O=C(Nc1cc(C(F)(F)F)cc(C(F)(F)F)c1)c1cc(Cl)ccc1O + Oc1cc(-c2nc(-c3ccccc3)[nH]c2-c2ccncc2)ccc1Cl [L779450] (first compound 0.08 µM, partner dose 1 µM) | 52.8 | 76.2 | 79.8 | 105 | 77.4 | 71.9 | 90.4 | 80.4 | 86.8 | 67.9 | 51 | 29.9 | 96.4 | 68.6 | 95 | 50.8 | 59.6 | 73.8 | 57 |
| O=C(Nc1cc(C(F)(F)F)cc(C(F)(F)F)c1)c1cc(Cl)ccc1O + CC(C)CCN1c2nc(Nc3cc(F)c(O)c(F)c3)ncc2N(C)C(=O)C1C [BID1870] (first compound 0.08 µM, partner dose 1 µM) | 65.5 | 77.8 | 82.9 | 86.1 | 78.7 | 61.2 | 92.2 | 65.2 | 93.6 | 113 | 72.1 | 73.9 | 82.3 | 62.6 | 73.1 | 71.8 | 103 | 78.2 | 70.3 |
| O=C(Nc1cc(C(F)(F)F)cc(C(F)(F)F)c1)c1cc(Cl)ccc1O + O=S(=O)(c1ccccc1)N(CC(F)(F)F)c1ccc(C(O)(C(F)(F)F)C(F)(F)F)cc1 [T0901317] (first compound 0.08 µM, partner dose 7 µM) | 58.7 | 64.2 | 58.3 | 78.1 | 94.9 | 62.1 | 75.3 | 66.4 | 73.5 | 91.7 | 67.9 | 96.2 | 76.8 | 57.9 | 57.2 | 78.7 | 85.4 | 77.3 | 70.4 |
| O=C(O)[C@@H]1[O][Sb](=[O])([O][Sb]2(=[O])[O][C@H]([C@H](O)CO)[C@H](O)[C@H](C(=O)O)[O]2)[O][C@H]([C@H](O)CO)[C@@H]1O (stereo partly drawn) [stibogluconate] + CC(C)CCN1c2nc(Nc3cc(F)c(O)c(F)c3)ncc2N(C)C(=O)C1C [BID1870] (first compound 10 µM, partner dose 1 µM) | 81.6 | 92.8 | 92.2 | 100 | 76.9 | 64.3 | 133 | 80.3 | 92.4 | 68 | 73.3 | 123 | 105 | 79.7 | 100 | 84.9 | 127 | 68 | 85.8 |
| O=C(O)c1ccc2c(c1)nc(Nc1cccc(Cl)c1)c1ccncc12 + COc1ccc(COc2ccc(Cc3cnc(N)nc3N)cc2OC)cc1 [GW2580] (first compound 2 µM, partner dose 5 µM) | 62 | 70.7 | 85.8 | 114 | 68.8 | 58.3 | 53.6 | 85 | 78.4 | 82.5 | 50.9 | 74.6 | 75.5 | 83.2 | 93.6 | 69.5 | 93.6 | 88.5 | 79.6 |
| O=C(O)[C@@H]1[O][Sb](=[O])([O][Sb]2(=[O])[O][C@H]([C@H](O)CO)[C@H](O)[C@H](C(=O)O)[O]2)[O][C@H]([C@H](O)CO)[C@@H]1O (stereo partly drawn) [stibogluconate] + O=C(Nc1ccccc1)c1cc([N+](=O)[O-])ccc1Cl [GW9662] (first compound 10 µM, partner dose 10 µM) | 94.8 | 121 | 102 | 88.1 | 83.1 | 89.7 | 90.3 | 69.8 | 85.4 | 104 | 78.7 | 105 | 93.2 | 109 | 98.8 | 86 | 82.4 | 92 | 96.7 |
| O=C(O)[C@@H]1[O][Sb](=[O])([O][Sb]2(=[O])[O][C@H]([C@H](O)CO)[C@H](O)[C@H](C(=O)O)[O]2)[O][C@H]([C@H](O)CO)[C@@H]1O (stereo partly drawn) [stibogluconate] + c1cc(-c2cnn3cc(-c4ccc(OCCN5CCCCC5)cc4)cnc23)ccn1 [Dorsomorphin] (first compound 10 µM, partner dose 2 µM) | 89.6 | 98.7 | 98.9 | 93.7 | 108 | 94.8 | 104 | 96.5 | 109 | 121 | 124 | 113 | 133 | 88.7 | 105 | 121 | 95.8 | 101 | 101 |
| O=C(O)[C@@H]1[O][Sb](=[O])([O][Sb]2(=[O])[O][C@H]([C@H](O)CO)[C@H](O)[C@H](C(=O)O)[O]2)[O][C@H]([C@H](O)CO)[C@@H]1O (stereo partly drawn) [stibogluconate] + O=c1cc(-c2cccc3c2Sc2ccccc2S3)oc(N2CCOCC2)c1 [KU55933] (first compound 10 µM, partner dose 5 µM) | 69.1 | 95.3 | 93.1 | 92.3 | 86.8 | 76.6 | 90.8 | 91.2 | 75.2 | 93.8 | 61.3 | 69.8 | 104 | 95.4 | 93.9 | 63.5 | 76.3 | 84.3 | 72 |
| O=C(Nc1cc(C(F)(F)F)cc(C(F)(F)F)c1)c1cc(Cl)ccc1O + COc1cc2ncnc(Nc3ccc(Oc4ccccc4)cc3)c2cc1OC [SrcI1] (first compound 0.08 µM, partner dose 10 µM) | 76.4 | 63.6 | 87.2 | 123 | 77.2 | 77.7 | 73.1 | 68 | 55.7 | 103 | 99.1 | 76.1 | 97.7 | 65.4 | 84.1 | 69.5 | 80.4 | 90.6 | 55.3 |
| O=C(O)c1ccc2c(c1)nc(Nc1cccc(Cl)c1)c1ccncc12 + Oc1cc(-c2nc(-c3ccccc3)[nH]c2-c2ccncc2)ccc1Cl [L779450] (first compound 2 µM, partner dose 1 µM) | 36 | 64 | 68.8 | 99 | 69.5 | 50.3 | 72.8 | 84 | 61.3 | 54.8 | 46.9 | 8.57 | 61.8 | 60.1 | 80.9 | 37 | 62.3 | 74.9 | 43.8 |
| O=C(Nc1cc(C(F)(F)F)cc(C(F)(F)F)c1)c1cc(Cl)ccc1O + O=c1cc(-c2cccc3c2Sc2ccccc2S3)oc(N2CCOCC2)c1 [KU55933] (first compound 0.08 µM, partner dose 5 µM) | 83.4 | 88.1 | 87.4 | 118 | 108 | 77.8 | 96.5 | 82.9 | 76.9 | 76.8 | 106 | 81.6 | 113 | 71.9 | 97.1 | 112 | 96.2 | 118 | 84.9 |
| O=C(O)[C@@H]1[O][Sb](=[O])([O][Sb]2(=[O])[O][C@H]([C@H](O)CO)[C@H](O)[C@H](C(=O)O)[O]2)[O][C@H]([C@H](O)CO)[C@@H]1O (stereo partly drawn) [stibogluconate] + CCN(CC)CCCCNc1ncc2cc(-c3cc(OC)cc(OC)c3)c(NC(=O)NC(C)(C)C)nc2n1 [PD173074] (first compound 10 µM, partner dose 0.5 µM) | 98.4 | 99.2 | 102 | 109 | 90.2 | 88.7 | 103 | 77.3 | 85.2 | 112 | 117 | 96.5 | 91.5 | 84.7 | 118 | 97.4 | 100 | 100 | 94.9 |
